Measurements: publication PMC4336329 (PLoS ONE, 2015)
In all, about 310,000 compounds went through this assay and about 2,200 (0.71%) showed an effect of 50% or more. Effects have a minus sign here. Some of the results follow.

Each compound was assayed against human ether-à-go-go-related gene (hERG) potassium channel (human, UniProt Q12809) (assay: primary screen, population patch clamp on CHO cells stably expressing hERG).
Sequence of human ether-à-go-go-related gene (hERG) potassium channel (Q12809 whole entry, looked up): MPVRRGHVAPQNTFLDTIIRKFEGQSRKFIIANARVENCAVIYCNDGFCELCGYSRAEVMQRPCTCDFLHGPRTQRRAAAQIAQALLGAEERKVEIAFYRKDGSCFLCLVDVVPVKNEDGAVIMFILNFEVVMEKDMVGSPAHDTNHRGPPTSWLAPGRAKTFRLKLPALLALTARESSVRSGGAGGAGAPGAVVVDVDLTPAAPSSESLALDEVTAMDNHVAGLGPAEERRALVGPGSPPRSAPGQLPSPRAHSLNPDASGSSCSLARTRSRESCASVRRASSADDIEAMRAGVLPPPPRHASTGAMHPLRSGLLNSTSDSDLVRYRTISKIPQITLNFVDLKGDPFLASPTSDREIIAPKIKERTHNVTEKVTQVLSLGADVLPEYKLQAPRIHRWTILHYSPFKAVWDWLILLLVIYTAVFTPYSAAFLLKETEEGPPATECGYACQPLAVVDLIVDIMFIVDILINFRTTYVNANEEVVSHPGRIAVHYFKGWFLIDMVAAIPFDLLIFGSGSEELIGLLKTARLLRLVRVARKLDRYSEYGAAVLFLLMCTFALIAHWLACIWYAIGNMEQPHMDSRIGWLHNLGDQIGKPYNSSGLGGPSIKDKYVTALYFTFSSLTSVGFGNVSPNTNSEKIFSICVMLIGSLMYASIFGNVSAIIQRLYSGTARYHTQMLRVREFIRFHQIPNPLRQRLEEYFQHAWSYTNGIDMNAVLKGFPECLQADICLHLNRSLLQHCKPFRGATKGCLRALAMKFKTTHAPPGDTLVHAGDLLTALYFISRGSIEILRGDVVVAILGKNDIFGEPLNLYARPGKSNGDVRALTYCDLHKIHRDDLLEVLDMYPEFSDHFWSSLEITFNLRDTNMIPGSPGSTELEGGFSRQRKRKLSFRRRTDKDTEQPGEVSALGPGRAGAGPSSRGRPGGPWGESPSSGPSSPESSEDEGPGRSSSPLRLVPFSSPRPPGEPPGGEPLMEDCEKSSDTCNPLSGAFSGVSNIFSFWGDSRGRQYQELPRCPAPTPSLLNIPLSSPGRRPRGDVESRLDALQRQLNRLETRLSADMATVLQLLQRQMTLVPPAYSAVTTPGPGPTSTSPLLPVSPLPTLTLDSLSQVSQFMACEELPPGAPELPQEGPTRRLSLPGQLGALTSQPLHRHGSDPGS

| SMILES | hERG current change (%, negative = inhibition) at 1uM [%] |
| --- | --- |
| CCC(C(=O)OCC(=O)Nc1c(Cl)cccc1Cl)c1ccccc1 (stereo not shown) | 10.8 |
| Cc1[nH]c2c(Cl)cccc2c(=O)c1CN1CCCCCC1 | -7.26 |
| CCC(=O)Nc1nc2ccccc2n1CCN(CC)CC | -0.302 |
| CCOc1cc(N2CCOCC2)c(OCC)cc1NC(=O)c1ccc(S(C)(=O)=O)cc1 | 8.68 |
| CC(NC(=O)c1cccc(S(=O)(=O)N2CCc3ccccc32)c1)c1ccco1 (stereo not shown) | 3.82 |
| O=C(CCc1nnc2ccc(NCc3ccco3)nn12)N1CCN(c2ccccc2)CC1 | -6.8 |
| Cn1c(-c2ccc3c(c2)OCO3)cnc1NCc1ccccc1.O=C(O)C(=O)O | -23.1 |
| COc1ccccc1/C=N/NC(=O)c1cccc(NC(=O)c2ccccc2Cl)c1 | 7.87 |
| CCn1c(CN2CCOCC2)nnc1SCC(=O)Nc1ccc(C)cc1 | 12.5 |
| O=C1/C(=C/c2ccccc2F)SC(=S)N1CC(=O)N1CCCCC1c1cccnc1 (stereo not shown) | 17.9 |
| CC12CCC(=O)N1C(C(=O)NCc1ccccc1Cl)CS2 (stereo not shown) | 4.86 |
| Cn1nc(C(F)(F)F)c(C(=O)Nc2ccc(F)cc2F)c1Cl | 9.99 |
| Cc1ccc(S(=O)(=O)N2CCOCC2)cc1C(=O)NCc1ccc(F)cc1 | 4.96 |
| Cc1nc(C(F)(F)F)c(C(=O)N=CN(C)C)s1 | 15.2 |
| C(=N\Nc1nc2ccccc2s1)/c1ccc2c(c1)OCO2 | 8.13 |
| OCCC1CN(CC2CCCCC2)CCN1C1CCCC1 (stereo not shown) | 10.1 |
| Cc1ccc(N(C(=O)C2CCC(=O)N2)C2(C(=O)NC3CCCC3)CCCCC2)cc1 (stereo not shown) | 3.56 |
| CNC(=O)COC(=O)/C=C/c1nc2ccccc2s1 | 12.1 |
| Cl.NC1(C(=O)O)CC1 | 17.9 |
| COc1ccc(/C=N/NC(=O)c2ccccc2O)cc1CN1CCOCC1 | 4.04 |
| Cc1csc(C(=O)NN)c1N(C)C | 15.2 |
| O=C(NCC(=O)N1CCN(C(=O)c2ccccc2)CC1)c1ccccc1 | 10.1 |
| O=c1c2ccccc2nc(-c2ccccc2)n1-c1cccc(O)c1 | 11.8 |

| SMILES | hERG current change (%, negative = inhibition) at 1uM [%] |
| --- | --- |
| O=C(O)C(=O)O.O=C(c1cccc2ccccc12)N1CCN(CC2CC=CCC2)CC1 (stereo not shown) | 14.1 |
| COC(=O)c1ccc(NC(=S)NC(=O)c2c(Cl)cnn2C)cc1 | 16 |
| COc1cccc(CN2CC(C(=O)N3CCCC3)CCC2=O)c1 (stereo not shown) | 10.9 |
| O=C(O)c1ccc(C[n+]2c(-c3ccccc3)csc2Nc2ccccc2)cc1.[Br-] | 8.98 |
| O=C1NC2(CCCc3ccccc32)C(=O)N1Cc1nnc(-c2ccccc2Br)o1 (stereo not shown) | 8.8 |
| CC(C)Sc1nc(N)nc(-c2cccs2)c1C#N | 7.1 |
| O=C(NCc1ccccc1)c1ccc(N2CCC3(CC2)CC(c2ccc(Cl)cc2)=NO3)c([N+](=O)[O-])c1 | 9.36 |
| O=C(CCN1C(=O)c2ccccc2C1=O)NCCN1CCOCC1 | 13.7 |
| CC(C)c1ccc(NC(=O)C2CCCCN2S(=O)(=O)c2ccccc2)cc1 (stereo not shown) | -3.19 |
| O=S(=O)(NCc1ccccn1)c1cccc2nsnc12 | 10.3 |
| CCOC(=O)c1c(N)sc(C(=O)N2CCCC(C(N)=O)C2)c1C (stereo not shown) | 9.64 |
| N#Cc1c(-n2cccc2/C=N/O)sc2c1CCCC2 | 1.01 |
| Cc1ccccc1NC(=O)C1C2CC/C=C\CCC21 (stereo not shown) | 27.7 |
| Cc1occc1-c1nnc(SCC(=O)Nc2ccccn2)o1 | 11.8 |
| COc1ccc(-c2nn(-c3ccccc3)cc2/C=C(\CC(=O)O)c2nc3ccccc3s2)cc1OC | 13.1 |
| CC(C)Oc1ccc(CCc2n[nH]c(=S)n2-c2ccccc2)cc1 | 13.2 |
| CCc1ccc(CCOc2ccc(CC3SC(=O)NC3=O)cc2)nc1.Cl (stereo not shown) | 9.07 |
| COc1ccc(NC(=O)c2cc(-c3ccc(OC)c(OC)c3)on2)cc1OC | 2.21 |
| CCCc1ccc(C(=O)COC(=O)CN2C(=O)NC3(CCCCC3C)C2=O)cc1 (stereo not shown) | 7.8 |
| O=C(O)CC/C(=C\c1cc2c(cc1Br)OCO2)c1nc2ccccc2s1 | 9.4 |
| CSc1nc(Oc2ccc(=O)[nH]n2)nc(N(C)C)n1 | 17.9 |
| O=C1OC(N2C(=O)CC[C@H]2C(=O)Nc2cccc(F)c2)c2ccccc21 (stereo partly shown) | 11.1 |
| COC(=O)NCC(c1ccc2c(c1)OCO2)N1CCN(c2ccccc2)CC1 (stereo not shown) | -0.766 |

| SMILES | hERG current change (%, negative = inhibition) at 1uM [%] |
| --- | --- |
| O=C(CNc1cccc(S(=O)(=O)N2CCCCC2)c1)Nc1cccc(F)c1 | 11.7 |
| CCc1ccc(NC(=S)N(CCN2CCOCC2)Cc2ccccc2F)cc1 | 4.52 |
| COc1cc(/C=N/NC(=O)c2ccc(Cl)c(S(N)(=O)=O)c2)ccc1OCC(N)=O | 10.3 |
| COCCCNCCOc1ccc(C)cc1[N+](=O)[O-].O=C(O)C(=O)O | 5.62 |
| CCOC(=O)C1CCCN(CC(=O)Nc2c(F)c(F)c(F)c(F)c2F)C1 (stereo not shown) | 4.79 |
| CC1CCN(c2nc3ccc(C(=O)O)cc3s2)CC1 | 20.8 |
| COc1cccc(/C=C2\N=C3CCCCCN3C2=O)c1 | 5.03 |
| O=C(NCc1ccco1)c1nc(-c2ccc(F)cc2)no1 | 2.36 |
| Cc1cc(C(=O)O)c(C)n1-c1ccccc1 | 7.19 |
| COC(=O)Cc1c(C)c2ccc(OC3CCCCC3=O)c(C)c2oc1=O (stereo not shown) | 5.45 |
| CN(C)S(=O)(=O)c1cccc(NC(=O)COC(=O)/C=C/c2ccco2)c1 | 6.72 |
| Cc1ccc(C(=O)C[n+]2cccc3cc(C)ccc32)cc1.[Br-] | 3.46 |
| CCOc1ccccc1N=CC1=C(O)CC(c2ccccc2)CC1=O (stereo not shown) | 9.27 |
| S=C(NCCc1ccccc1)NCc1ccccc1Cl | 8.67 |
| Cc1ccc(OCC(=O)NC(=S)Nc2cccc(NC(=O)c3ccc(Cl)cc3Cl)c2)cc1 | 25.9 |
| Cc1ccc(O)c(C(=O)c2cc(C(=O)NCCc3ccccc3)c(=O)n(CCc3ccccc3)c2)c1 | 11.4 |
| CCOc1ccc(N2C(=O)CC(Sc3nc4ccc(OCC)cc4s3)C2=O)cc1 (stereo not shown) | 13.6 |
| CC(=O)Nc1ccccc1-c1ccc(C)o1 | 14.4 |
| COc1ccc(CCNC(=O)c2cc3c(=O)n4cccc(C)c4nc3n(CC3CCCO3)c2=N)cc1 (stereo not shown) | -79.4 |
| CC(C)(C)Cc1nnc(NC(=O)c2ccco2)s1 | 13.6 |
| CCOc1cc(/C=N/NC(=O)CSc2cccc3cccnc23)ccc1O | 13 |
| COc1ccccc1/C=N/NC(=O)c1ccc(CN2C(=O)c3cccc4cccc2c34)cc1 | 6.16 |
| Cc1ccc2nc(SCC(=O)NC3CCCC3)[nH]c2c1 | 9.65 |

| SMILES | hERG current change (%, negative = inhibition) at 1uM [%] |
| --- | --- |
| CC(OC(=O)c1ccc(Br)c(S(=O)(=O)N2CCOCC2)c1)C(=O)NC1CCCCC1C (stereo not shown) | 2.4 |
| c1coc(CNc2nc(-c3cccs3)cs2)c1 | 7.14 |
| NC(N)=N/N=C/c1cccc(Cl)c1Cl | -5.72 |
| NC(=O)COC(=O)c1ccc(NS(=O)(=O)c2ccc3c(c2)OCCO3)cc1 | 0.98 |
| Cc1ccc(S(=O)(=O)Nc2ccccc2C=Nc2cccc(C)c2C)cc1 | 2.89 |
| COc1ccccc1NC(=S)NNC(=O)c1ccccc1 | 2.82 |
| O=C1CSC(=Nc2cccc(Cl)c2Cl)N1 | 14.8 |
| CSc1ccc(S(=O)(=O)Nc2ccc3c4c(cccc24)CC3)cc1 | 2.08 |
| CCOC(=O)N1CCC(=NNC(N)=O)CC1 | 14.1 |
| Cc1cccc(OCC(=O)N2CCN(C(=O)c3ccco3)CC2)c1 | -2.44 |
| Cc1c(Cl)cccc1NC(=O)CSC(C)c1nc2ccccc2c(=O)[nH]1 (stereo not shown) | 12.9 |
| CCOc1ccc(C(C)(C)C)cc1S(=O)(=O)N1CC(C)OC(C)C1 (stereo not shown) | 10.6 |
| CCCOc1ccc(N2C(=O)CC(N(CCc3ccc(OC)c(OC)c3)C(=O)c3ccccc3)C2=O)cc1 (stereo not shown) | -37.5 |
| COc1ccc(N2CCN(CCCNC(=O)Cn3c(=O)c4cccn4c4cccnc43)CC2)cc1 | -26.5 |
| CCCc1nc(SCC(=O)O)c2sc(=S)n(-c3ccccc3)c2n1 | 10.8 |
| O=C(NN(c1ccccc1)c1ccccc1)c1ccc([N+](=O)[O-])o1 | 8.87 |
| O=C(CCC(=O)N1CCN(c2ccccc2F)CC1)c1ccc(F)cc1 | -1.97 |
| Cc1ccc(COC(=O)c2cc([N+](=O)[O-])ccc2N2CCOCC2)cc1 | -21 |
| CC(=O)c1cnc(SCC(=O)O)nc1C | 16 |
| COc1ccc(NC(=O)c2ccc(S(=O)(=O)N3CCCCCC3)cc2)c(OC)c1 | 5.1 |
| CCN1/C(=C\C=C(C(C)=O)C(C)=O)Sc2ccccc21 | 20.4 |
| CCO[C@H]1OC(C(=O)N2CCOCC2)=C[C@@H](C)[C@@H]1CCCO | 13.3 |
